Measurements as given in PMC4336329 (PLoS ONE, 2015).
In all, about 310,000 compounds went through this assay and about 2,200 (0.71%) showed an effect of 50% or more. The effect is printed as a negative number. The list shows a part of the results.

molecular target: human ether-à-go-go-related gene (hERG) potassium channel (human, UniProt Q12809); experiment: primary screen, population patch clamp on CHO cells stably expressing hERG
Sequence (Q12809 whole entry, looked up): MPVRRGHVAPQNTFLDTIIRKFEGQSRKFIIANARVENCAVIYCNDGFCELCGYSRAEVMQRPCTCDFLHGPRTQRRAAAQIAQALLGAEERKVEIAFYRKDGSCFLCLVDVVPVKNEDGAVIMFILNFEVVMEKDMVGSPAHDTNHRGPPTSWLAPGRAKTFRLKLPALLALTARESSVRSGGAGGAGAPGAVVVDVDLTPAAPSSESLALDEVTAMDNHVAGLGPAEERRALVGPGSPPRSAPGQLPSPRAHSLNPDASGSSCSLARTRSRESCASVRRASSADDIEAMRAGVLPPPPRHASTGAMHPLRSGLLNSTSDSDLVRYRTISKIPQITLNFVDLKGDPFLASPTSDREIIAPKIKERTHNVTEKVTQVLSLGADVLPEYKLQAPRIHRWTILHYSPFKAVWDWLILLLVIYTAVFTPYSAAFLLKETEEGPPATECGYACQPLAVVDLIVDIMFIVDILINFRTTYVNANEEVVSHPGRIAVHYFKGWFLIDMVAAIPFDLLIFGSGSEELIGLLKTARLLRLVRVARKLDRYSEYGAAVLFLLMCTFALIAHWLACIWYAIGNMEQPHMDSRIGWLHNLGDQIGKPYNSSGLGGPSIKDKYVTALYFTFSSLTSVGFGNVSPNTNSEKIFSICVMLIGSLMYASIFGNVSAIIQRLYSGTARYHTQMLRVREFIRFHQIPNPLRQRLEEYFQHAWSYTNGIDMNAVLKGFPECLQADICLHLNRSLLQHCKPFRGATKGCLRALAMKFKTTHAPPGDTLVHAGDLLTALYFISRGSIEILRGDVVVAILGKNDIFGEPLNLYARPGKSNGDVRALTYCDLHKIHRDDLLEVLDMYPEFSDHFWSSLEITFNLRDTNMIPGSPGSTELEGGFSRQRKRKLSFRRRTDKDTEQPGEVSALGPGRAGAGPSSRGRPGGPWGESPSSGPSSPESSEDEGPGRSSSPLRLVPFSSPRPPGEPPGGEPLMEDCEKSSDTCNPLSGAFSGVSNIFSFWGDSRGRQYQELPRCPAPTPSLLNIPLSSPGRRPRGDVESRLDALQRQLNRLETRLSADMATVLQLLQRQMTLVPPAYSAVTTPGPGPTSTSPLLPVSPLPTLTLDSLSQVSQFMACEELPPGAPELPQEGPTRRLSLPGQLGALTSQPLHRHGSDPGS

| SMILES | hERG current change (%, negative = inhibition) at 1uM [%] |
| --- | --- |
| COC(=O)c1ccccc1NC(=O)CN1CCC(n2nnc3cc(F)ccc32)CC1 | -2.96 |
| COC(=O)c1cc(S(=O)(=O)N2c3ccccc3CC2C)c[nH]1 (stereo not shown) | 7.2 |
| CCOc1ccc(C(=O)Oc2cc(C)[nH]c(=O)c2[N+](=O)[O-])cc1 | 5.87 |
| Cc1ccnc(NS(=O)(=O)c2ccc(CC(C)C)cc2)c1 | 8.54 |
| Cn1ccc(/C=N/N=C2/NC(=O)CS2)n1 | 18.7 |
| CC(C)CCN1C(=O)c2ccc(C(=O)N3CCCCC3)cc2C1=O | 3.62 |
| COc1ccc(S(=O)(=O)N2CCCC(C(=O)NCC3CCCO3)C2)cc1OC (stereo not shown) | 14.7 |
| CC1(C)CC(=O)C=C(Nc2ccc3c(c2)CCC3)C1 | 7.82 |
| C[C@H](NC(=O)[C@@H]1CSC2c3ccccc3C(=O)N21)C(=O)NC1CCCC1 (stereo partly shown) | 18.5 |
| CC(C)(C)c1nc(NCCN2CCOCC2)c2nnn(Cc3ccccc3Cl)c2n1 | 22.7 |
| CCCCC(=O)Nc1cccc(NC(=O)C(C)C)c1 | 13 |
| CCC1CC(/C(C)=N/NC(N)=O)OC1=O (stereo not shown) | 4.16 |
| O=C(Nc1ncc([N+](=O)[O-])s1)c1cccc([N+](=O)[O-])c1 | 0.896 |
| CC(C)(C)Cc1nc(-c2ccccn2)no1 | 6.13 |
| Cc1cccc(OCc2n[nH]c(=S)n2Cc2ccccc2)c1 | 16.5 |
| CCCCc1ccc(S(=O)(=O)N2CCC3(CC2)OCCO3)cc1 | 17.5 |
| Cc1ccc(NS(=O)(=O)c2ccc(C(=O)NCc3cccnc3)cc2)cc1 | 9.58 |
| CCc1nn(CC(=O)NCCN2CCN(C)CC2)c(=O)c2cc3occc3n12 | 12.1 |
| CCOc1ccccc1/C=c1\sc2ncnn2c1=O | -21.1 |
| CC1=C(C(=O)NCc2ccc(Cl)cc2)C2(CCC(C)CC2)OC1=O (stereo not shown) | 3 |

| SMILES | hERG current change (%, negative = inhibition) at 1uM [%] |
| --- | --- |
| Clc1ccccc1OCCCCN1CCCCC1 | 6.87 |
| CC(=O)c1ccc(N2CCN(C(=S)Nc3ccc(Oc4ccccc4)cc3)CC2)cc1 | 5.86 |
| COc1ccc(C2/C(=C(/O)c3ccc(Br)cc3)C(=O)C(=O)N2C)cc1OC (stereo not shown) | 6.24 |
| O=C(NCCc1c[nH]c2ccccc12)c1ccc([N+](=O)[O-])cc1 | 1.04 |
| CC(=C/C(=O)O)/C(=C/c1ccccc1)C(=O)O | 7.52 |
| COC(=O)c1ccc(OC)c(OC)c1Cl | 6.44 |
| O=C(NCC1CCCO1)c1onc(CSc2cccc3ccccc23)c1C(=O)O (stereo not shown) | 16.9 |
| COc1ccccc1NC1=Nc2cccc3cccc1c23 | 9.51 |
| CCCCCN(C(=O)NC(=O)Nc1ccccc1C)S(=O)(=O)c1ccccc1 | 16.4 |
| CCC(C)NC(=O)CN(C1CCCCC1)S(=O)(=O)c1ccc(F)cc1 (stereo not shown) | 9.45 |
| C=CCn1c(SCC(=O)N2CCCC2=O)nc2sc(CC)cc2c1=O | -20 |
| O=C(Oc1ccccc1Cl)c1ccc2c(=O)n3c(nc2c1)CCC3 | 13 |
| C=CCn1c(SCC(=O)N2CCc3ccccc3C2)nc2sc(CC)cc2c1=O | 10.8 |
| CC1(c2ccc(OC(F)F)cc2)NC(=O)N(/N=C/c2c(O)ccc3ccccc23)C1=O (stereo not shown) | 9.49 |
| Cc1c(O)c(S(=O)(=O)c2ccccc2)c(=O)n(-c2ccccc2)c1-c1ccccc1 | 9.12 |
| CCOc1ccc(S(=O)(=O)N2CCN(C(=O)CCOc3ccccc3C)CC2)cc1 | 0.0579 |
| O=C(NCCNC(=O)c1cccs1)c1ccco1 | 19.1 |
| COCCOC(=O)C1=C(C)N=C2SCCC(=O)N2C1c1cccs1 (stereo not shown) | 11.3 |
| CCCCc1cc(=O)oc2cc(OCC(=O)N3CCC(C(N)=O)CC3)ccc12 | 5.53 |
| COc1cc(C)c(C)cc1S(=O)(=O)N1CCN(Cc2ccccc2)CC1 | 3.77 |

| SMILES | hERG current change (%, negative = inhibition) at 1uM [%] |
| --- | --- |
| Nc1cc(C(=O)Nc2ccc(Cl)cc2)ccc1N1CC2CC(C1)c1cccc(=O)n1C2 (stereo not shown) | -10.9 |
| COc1ccc(C2OC3=C(Nc4cc(C)c(C)cc4N3)C2=O)cc1 (stereo not shown) | 10.1 |
| COc1ccc(-n2nnnc2SCC(=O)Nc2ccc3c(c2)OCCO3)cc1OC | 6.6 |
| COc1ccc(CCNC(=O)c2ccc(NS(=O)(=O)c3ccc4[nH]c(=O)[nH]c4c3)cc2)cc1 | 9.03 |
| O=C(NCC1CCCCC1)c1ccco1 | 15.6 |
| CC1(C)Cc2c(sc3nnn(CC(=O)Nc4ccccc4)c(=O)c23)CO1 | 2.47 |
| O=C(CCC(=O)Nc1ccccc1Cl)NNC(=O)c1ccccc1[N+](=O)[O-] | 5.21 |
| O=C(Nc1nc2c(Cl)cccc2s1)c1ccc(Br)o1 | -5.88 |
| Cc1nc(-c2ccccc2)sc1-c1nc(-c2ccncc2)ncc1S(=O)(=O)c1ccccc1 | 12.3 |
| Cn1c(=O)c2c(SCC(=O)N3CCOCC3)nc(-c3ccccc3Cl)nc2n(C)c1=O | 8.94 |
| CCCNC(=O)C1CC2Cn3c(nc4ccccc43)C2N1C (stereo not shown) | 14.9 |
| Cn1c2ccccc2c2nnc(SC3CCOC3=O)nc21 (stereo not shown) | 3.35 |
| O=C(NN1CCOCC1)c1cccc(Cl)c1 | 6.61 |
| COc1ccc(NC(=O)c2c3c(nc4ccccc24)CCC3)cc1 | 9.52 |
| COc1ccc(-c2csc(NC(=O)CSc3nc(C)cs3)n2)cc1 | 7.73 |
| Cc1ccc2nc(/C(C#N)=C/c3ccc(-c4cccc([N+](=O)[O-])c4)o3)[nH]c2c1 | 5.05 |
| Cc1ccc2nc(SCC(=O)NCc3ccco3)c(C)cc2c1 | 7.03 |
| O=C(N/N=C/c1cccc(Cl)c1)C1CCCC1 | 10.6 |
